These results are taken from article PMC4336329 (PLoS ONE, 2015).

Structures are written as SMILES. The campaign covered roughly 310,000 compounds. About 2,200 (0.71%) showed an effect of 50% or more. Effects have a minus sign here. The list shows a part of the results.

The target in the test is human ether-à-go-go-related gene (hERG) potassium channel (human, UniProt Q12809). The test is described as follows: primary screen, population patch clamp on CHO cells stably expressing hERG.
Chain of human ether-à-go-go-related gene (hERG) potassium channel (Q12809 whole entry, looked up): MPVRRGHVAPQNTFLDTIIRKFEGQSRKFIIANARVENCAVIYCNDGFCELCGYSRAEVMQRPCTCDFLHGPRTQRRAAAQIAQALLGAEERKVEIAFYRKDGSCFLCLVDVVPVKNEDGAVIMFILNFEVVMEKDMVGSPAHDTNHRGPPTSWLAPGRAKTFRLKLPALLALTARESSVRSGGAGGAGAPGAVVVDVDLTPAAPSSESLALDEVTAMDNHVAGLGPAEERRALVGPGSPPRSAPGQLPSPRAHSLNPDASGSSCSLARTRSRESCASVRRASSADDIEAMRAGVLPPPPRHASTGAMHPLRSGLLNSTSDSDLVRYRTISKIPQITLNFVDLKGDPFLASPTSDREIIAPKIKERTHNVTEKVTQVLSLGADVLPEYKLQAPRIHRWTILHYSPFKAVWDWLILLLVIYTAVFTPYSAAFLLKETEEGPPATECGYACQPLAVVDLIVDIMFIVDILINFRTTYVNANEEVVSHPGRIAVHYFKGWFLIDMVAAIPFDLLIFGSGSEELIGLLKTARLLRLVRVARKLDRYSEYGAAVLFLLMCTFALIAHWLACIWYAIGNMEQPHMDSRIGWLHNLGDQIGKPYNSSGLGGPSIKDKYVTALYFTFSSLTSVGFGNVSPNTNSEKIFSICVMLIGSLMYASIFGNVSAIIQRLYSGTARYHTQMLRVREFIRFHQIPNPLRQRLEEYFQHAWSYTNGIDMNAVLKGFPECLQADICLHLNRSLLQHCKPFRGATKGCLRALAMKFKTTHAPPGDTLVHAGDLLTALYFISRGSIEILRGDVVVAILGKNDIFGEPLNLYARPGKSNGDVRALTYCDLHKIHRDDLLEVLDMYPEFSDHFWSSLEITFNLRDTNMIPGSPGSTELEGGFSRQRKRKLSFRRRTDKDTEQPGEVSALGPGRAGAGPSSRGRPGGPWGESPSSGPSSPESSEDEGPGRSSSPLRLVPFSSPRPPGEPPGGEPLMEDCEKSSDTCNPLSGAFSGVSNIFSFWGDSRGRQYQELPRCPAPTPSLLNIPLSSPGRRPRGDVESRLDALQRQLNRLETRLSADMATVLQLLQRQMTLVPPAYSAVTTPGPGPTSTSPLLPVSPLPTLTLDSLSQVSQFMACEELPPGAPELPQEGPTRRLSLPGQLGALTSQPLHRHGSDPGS
For `CS(=O)(=O)N(CC(=O)N1CCc2ccccc2C1)c1ccccc1Br`, the “hERG current change (%, negative = inhibition) at 1uM” value was 11.7%.

For the compound `CC(CCc1ccccc1)NC(=O)COC(=O)C1=COCCO1` (stereo not drawn), the “hERG current change (%, negative = inhibition) at 1uM” value is 12.9%. Then `COc1cc2ccccc2cc1C(=O)Nc1ccc(N2CCOCC2)cc1`, with 14.3%; and `CN(C)c1ccc(/C=N/N(Cc2ccccc2)c2ccccc2)cc1`, with 11.4%.

`COc1ccc(CNC(=S)Nc2ccc(S(N)(=O)=O)cc2)cc1`: the “hERG current change (%, negative = inhibition) at 1uM” value came out at 4.13%.

Turning to `COc1ccc(S(=O)(=O)N2CCSCC2)cc1`, the “hERG current change (%, negative = inhibition) at 1uM” value is 7.1%. To `CN(C)C(=O)Cn1cnc2c(cnn2-c2ccccc2Cl)c1=O` belongs -4.2%; to `CSc1cc(-c2ccccc2)n(C)c(=O)c1C#N`, 16.5%; to `CCN(Cc1ccncc1)C(=O)c1cc(COc2c(C)cccc2C)on1`, -63.1%. To `Cc1nc(/N=C(\N)N(C)C)[nH]c(=O)c1C` belongs 5.78%. To `COc1ccccc1CN(C)C(=O)CN1CCN(CC(=O)Nc2ccccc2Cl)CC1` belongs -4.92%. Turning to `CCN(CC)CCC(c1ccc(N(C)C)cc1)c1c(OC)cc(OC)c2ccc(=O)oc12` (stereo not drawn), the “hERG current change (%, negative = inhibition) at 1uM” value came out at 4.07%.

Turning to `Cn1ncc(Cl)c1C(=O)N1CCN(c2ccc(Cl)c(Cl)c2)CC1`, the “hERG current change (%, negative = inhibition) at 1uM” value was 8.62%. Then `O=C1c2ccccc2C(=O)N1CSc1nnc(Nc2ccccc2)s1`, with 11.6%; and `CC(=O)Nc1cccc(NC(=O)C(F)(F)F)c1`, with 18.2%; and `O=S(=O)(c1ccc(F)c(F)c1)N1CCN(Cc2ccc3c(c2)OCO3)CC1`, with -9.04%. Then `CC(C)N(C(=O)NC(=O)Nc1ccc(S(=O)(=O)N2CCCC2)cc1)S(C)(=O)=O`, with 0.333%; and `CCOc1ccc(C(=O)Nc2ccc(N3CCCC3)cc2)cc1`, with 13.1%; and `CC1(C)Oc2ccc3ccc(=O)oc3c2-c2cn[nH]c21`, with 10.1%. To `COc1ccc(C)cc1S(=O)(=O)N1CCc2ccccc2C1` belongs 8.62%; to `CN(C)CCn1c2ccccc2c2nc3ccc([N+](=O)[O-])cc3cc21`, 10.8%; to `O=S(=O)(c1ccc(N2CCOCC2)cc1)N1CCOCC1`, 6.18%. `Cc1cc(Oc2ccccc2)nc(SCC(N)=O)n1`: the “hERG current change (%, negative = inhibition) at 1uM” value was 8.03%. Then `CC1CCN(C(=O)c2[nH]cnc2C(=O)NCc2ccccc2)CC1`, with 10.8%.

Turning to `COc1cc(/C=C2\CCCc3c2nc2ccccc2c3C(=O)O)cc([N+](=O)[O-])c1O`, the “hERG current change (%, negative = inhibition) at 1uM” value was determined as 17.4%.

Take `COc1cccc(C(=O)Nc2ccc(NC(=O)C3CC3)nc2)c1`: the “hERG current change (%, negative = inhibition) at 1uM” value amounted to 12.9%. With `O=C(Cc1cccs1)NCCc1ccc(Cl)cc1`, the “hERG current change (%, negative = inhibition) at 1uM” value was -17.5%. To `CC(=O)NC(CC(=O)O)C(=O)O` (stereo not drawn) belongs 19.4%; to `N#Cc1c(-c2ccccc2)nc(SCC(=O)Nc2ccccc2F)[nH]c1=O`, 14.7%; to `O=C(CSCc1ccccc1)Nc1ccc(F)c(F)c1`, 13.6%. As for `COc1ccccc1CCNC(=O)CSc1nc(=O)[nH]c2c1CCC2`, the “hERG current change (%, negative = inhibition) at 1uM” value is on record as -18.3%. Turning to `COc1cc(/C=C(\C#N)c2nc(-c3cc4ccccc4oc3=O)cs2)ccc1O`, the “hERG current change (%, negative = inhibition) at 1uM” value is reported as 8.7%. Then `CN1C2CCC1C(COC(=O)c1ccccc1)C(O)C2` (stereo not drawn), with 8.16%; and `COc1ccc([N+](=O)[O-])cc1NS(=O)(=O)c1cc(C(=O)N2CCN(C)CC2)ccc1OC`, with 4.81%. Then `COc1cc(NC(=O)C2=C(C)OCCS2)c(Cl)cc1C(=O)NCCN1CCN(C)CC1`, with -11.6%. Consider `CC(CNC(=O)c1ccc(OC2CCN(Cc3ccccn3)CC2)cc1)c1ccccc1` (stereo not drawn), for which the “hERG current change (%, negative = inhibition) at 1uM” value is on record as -38.8%. Turning to `COc1ccc(C(=O)N2c3ccccc3C=CC2C#N)cc1` (stereo not drawn), the “hERG current change (%, negative = inhibition) at 1uM” value stood at 5.61%. For the compound `COc1cc(Cl)c(S(=O)(=O)NCCN2CCOCC2)cc1Cl`, the “hERG current change (%, negative = inhibition) at 1uM” value is 11.8%. Then `Cc1ccc(C(=O)CNc2nc3c(c(=O)[nH]c(=O)n3C)n2Cc2ccccc2)cc1`, with 7.44%; and `CCOC(=O)c1ccccc1NS(=O)(=O)c1ccccc1`, with -0.965%; and `CCN1CCN(CC(=O)Nc2c(OC)cccc2OC)CC1.O=C(O)C(=O)O`, with 4.34%. To `CN1CCN(CC(=O)N2c3ccccc3C(C)(c3ccccc3)CC2(C)C)CC1` (stereo not drawn) belongs -0.562%. Then `CCOC(=O)c1cnc2nc(N3CCOCC3)nn2c1N`, with 2.83%; and `O=C(NCc1ccccn1)c1ccc(Cn2c(=S)[nH]c3ccc(Br)cc3c2=O)cc1`, with 12%; and `CC(C)(C)c1ccc(S(=O)(=O)N2C=CC(C(F)(F)F)=NCC2)cc1`, with 6.78%.
